The list shows a part of the results. Sequences were assembled here from the parent chain. Values near 0.05 are background.
B1: TEV protease; numbered along this chain (parent)
chain: MGESLFKGPRDYNPISSSICHLTNESDGHTTSLYGIGFGPFIITNKHLFRRNNGTLVVQSLHGVFKVKDTTTLQQHLVDGRDMIIIRMPKDFPPFPQKLKFREPQREERICLVTTNFQTKSMSSMVSDTSCTFPSGDGIFWKHWIQTKDGQCGSPLVSTRDGFIVGIHSASNFTNTNNYFTSVPKNFMELLTNQEAQQWVSGWRLNADSVLWGGHKVFMVKPEEPFQPVKEATQL

Variants of: B1
Assay: raw area under fraction-flipped curve 0-4 h after induction (AUC4h, not background-subtracted), DNA-recorder readout of cleavage of the substrate (dimensionless); higher = more cleavage of the substrate by the protease variant
Conditions: temperature: 34 °C; time window: 0-4 h after rhamnose induction
Experimental: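 In vivo DNA recorder in E. coli TOP10(DE3) ΔrhaA at 34 °C. Each TEVp single-site mutant (parent TEVp 0) is paired with a single-site variant of the 7-mer TEVs (canonical ENLYFQ|S). The substrate sits between flexible linkers in a Bxb1-sfGFP-TEVs-SsrA fusion, so cleavage stabilises Bxb1 and speeds flipping of a recombination array, read by NGS. The value is the raw area under the fraction-flipped curve over 0-4 h after rhamnose induction (AUC4h), with ≥20 reads per time point. It is not background-subtracted; inactive controls average about 0.047.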
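Further: Bxb1 expression induced with 0.2% (w/v) L-rhamnose at OD600 near 0.5, cultures sampled hourly, flipped fraction per protease–substrate barcode pair counted by paired-end Illumina sequencing.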

Variant	area with substrate ENLYFAS	area with substrate ENLYFCS	area with substrate ENLYFDS	area with substrate ENLYFES	area with substrate ENLYFFS	area with substrate ENLYFGS	area with substrate ENLYFIS	area with substrate ENLYFKS	area with substrate ENLYFLS	area with substrate ENLYFMS	area with substrate ENLYFNS	area with substrate ENLYFRS	area with substrate ENLYFSS	area with substrate ENLYFTS	area with substrate ENLYFVS	area with substrate ENLYFWS	area with substrate ENLYFYS	area with substrate ENLYFHS	area with substrate ENLYFPS
D161C	0.0451	0.0699	0.0629	0.05	0.0657	0.058	0.0494	0.0561	0.0637	0.0499	0.0586	0.0525	0.0604	0.0618	0.0583	0.0518	0.0625	–	–
Q146R	0.0638	–	0.0585	0.0567	0.0723	–	0.064	0.0468	–	0.0649	0.0747	0.0564	0.0555	0.0476	–	0.0618	–	0.0662	0.0526
G166R	0.0374	–	0.0627	0.0491	0.0623	–	0.0468	–	0.0534	–	–	0.0563	0.0537	0.0486	0.0404	0.0433	–	0.0655	0.059
G166V	0.0545	0.0343	0.0531	0.0527	–	–	0.0313	0.0585	0.0346	0.0463	0.0458	0.0096	–	0.0481	–	0.0631	–	0.0324	–
K142F	0.0584	0.0423	–	0.0889	0.0673	–	0.0565	–	–	0.0705	0.0697	–	0.0618	0.0678	0.0564	0.049	0.0576	0.0594	0.06
K142E	0.0652	0.0444	0.06	0.0619	0.0513	–	0.0552	0.0682	0.0245	0.0653	0.106	–	0.0537	0.0755	0.0619	0.0593	0.0673	0.0695	0.0625
K142T	0.0433	0.0694	0.0488	0.0582	0.0685	0.0514	0.0404	–	–	0.0623	0.0538	0.0643	0.06	0.0623	–	0.0498	0.0549	0.0637	0.0614
H143A	0.057	–	0.0527	0.0686	0.0746	0.0684	0.0533	0.0646	0.0622	0.0662	0.0612	0.0642	0.0683	0.0624	0.0641	0.0485	–	0.0631	0.0559
H143P	0.0583	0.0567	0.0361	0.0471	0.0649	–	0.0492	–	–	0.0559	0.0577	0.051	0.0674	0.0594	–	0.0511	0.0525	–	0.0671
F187I	0.0596	0.0603	0.0497	0.0634	0.0727	–	0.0593	0.0647	–	0.0635	–	0.0719	0.0646	0.0528	0.067	0.051	–	–	0.0584
F187Q	0.0631	–	0.0331	0.0643	0.0637	0.0486	0.0544	0.0573	–	0.0091	–	–	0.0687	0.0531	0.0428	–	0.054	0.0474	0.0538
F187E	0.049	–	0.0592	0.0559	0.0632	0.0382	0.0517	0.0509	–	–	0.0447	0.0585	–	0.0463	0.0579	0.0496	0.048	–	0.0611

From the supplement of paper PMC12217912
